# Measurements taken from the supplement of paper PMC4166925.
# ± gives the standard deviation of the averaged measurements. The full ranking holds about 33,000 sequences; the median of “E-score (dimensionless, -0.5 to 0.5)” is about -0.046, and the highest 2% start at about 0.36. The list shows a part of the results.
# System: T1, SpTbr T-box DNA-binding domain (GST fusion)
# T1 sequence: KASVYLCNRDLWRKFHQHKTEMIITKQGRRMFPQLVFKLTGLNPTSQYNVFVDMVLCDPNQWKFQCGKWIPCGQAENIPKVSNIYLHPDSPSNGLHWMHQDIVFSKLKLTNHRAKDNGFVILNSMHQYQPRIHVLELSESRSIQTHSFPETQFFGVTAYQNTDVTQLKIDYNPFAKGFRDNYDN
# Test: PBM E-score of 8-mer (E-score (dimensionless, -0.5 to 0.5)); Tbr is Tbrain of the sea star Patiria miniata (Pm) or the sea urchin Strongylocentrotus purpuratus (Sp); higher = stronger binding preference; most listed sequences are background and not binding sites
# Conditions: the construct has about 5 more residues each side
# Experimental: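 Universal protein-binding microarray (Agilent AMADID 016060, 60-bp probes with a 35-bp variable region) incubated with 200 nM GST-fused Strongylocentrotus purpuratus Tbr T-box DNA-binding domain (residues 362-554) in PBS pH 7.5. Scored for every ungapped 8-mer (given with its reverse complement) as E-score (range -0.5 to 0.5; >0.45 counts as bound) and Z-score of median probe intensity. Two replicate arrays (datasets 1 and 2).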
# 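Also: protein at 200 nM in PBS on universal double-stranded arrays.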
row,Sequence,PBM E-score of 8-mer
1,GAATCGCA,0.261 ± 0.0065
2,CGTAGCGC,0.0273 ± 0.026
3,GCTTCTTA,0.0778 ± 0.074
4,ATGCGTTA,0.249 ± 0.023
5,CTAGTTCC,-0.113 ± 0.021
6,CTCCAAAC,-0.0591 ± 0.11
7,CACGTTTA,0.144 ± 0.054
8,CTCACCTA,0.385 ± 0.014
9,GGTGTGCA,0.362 ± 0.026
10,GTGAACCA,0.239 ± 0.015
11,TACTCCTA,-0.0414 ± 0.052
12,AGTAGGTC,-0.0701 ± 0.038
13,AGGTCCCA,0.0282 ± 0.056
14,CCAGGTGC,0.3516 ± 0.00069
15,CGGGGGAA,-0.227 ± 0.043
16,AGTAGGAA,-0.171 ± 0.011
17,CCGGTCCA,-0.108 ± 0.034
18,AGCTTAGG,-0.137 ± 0.06
19,ACCTAGAC,0.109 ± 0.12
20,CAGGTCCG,-0.0754 ± 0.04
21,AGAACTGC,-0.0394 ± 0.11
22,GACAGTTA,0.155 ± 0.021
23,AGATCACG,0.0187 ± 0.025
24,TCCGCGAA,0.2876 ± 0.00083
25,AAATAAAG,-0.189 ± 0.11

row,Sequence,PBM E-score of 8-mer
1,TCACTAAA,0.163 ± 0.0075
2,CGACTAAA,-0.153 ± 0.025
3,AGCACAGG,-0.143 ± 0.017
4,ATCACGAA,0.00852 ± 0.034
5,ACCTCGAT,0.152 ± 0.037
6,AAGACAGG,-0.117 ± 0.0098
7,GAGAGTCC,-0.181 ± 0.049
8,CTTTATGA,0.0331 ± 0.046
9,AATTGTAG,-0.0995 ± 0.021
10,CCGCGAAG,0.353 ± 0.0062
11,AAAAGCGG,-0.254 ± 0.068
12,CGACGCCA,0.189 ± 0.073
13,AGTGTCCA,0.0307 ± 0.017
14,AAACGGAT,-0.0584 ± 0.052
15,GCCGAATA,-0.017 ± 0.035
16,GCACTTAA,0.254 ± 0.044
17,ACCTGACT,-0.00588 ± 0.018
18,ATTGCTCG,-0.1443 ± 0.00092
19,CCGTCTAC,-0.101 ± 0.09
20,CTTTCAAA,-0.203 ± 0.0062
21,CACGCCTC,0.395 ± 0.032
22,CCGAGGCA,-0.161 ± 0.046
23,CCATGCGC,-0.0395 ± 0.1
24,AATTGGAC,-0.187 ± 0.049
25,ACGCAGTC,-0.137 ± 0.022

row,Sequence,PBM E-score of 8-mer
1,GGCTACGA,-0.142 ± 0.061
2,AGGACCCA,-0.232 ± 0.078
3,CATCATCC,-0.166 ± 0.042
4,AATGTACA,-0.187 ± 0.021
5,CCTAGTAA,0.0407 ± 0.027
6,AACTATAG,-0.0665 ± 0.0063
7,GGTGCACC,-0.171 ± 0.024
8,CAGAATCA,-0.195 ± 0.0096
9,CTCGACCA,-0.0139 ± 0.069
10,GTTCTTAA,-0.157 ± 0.084
11,CTTTCTGC,0.0223 ± 0.02
12,CTTAATCC,-0.00895 ± 0.027
13,CATCGGTA,-0.0619 ± 0.043
14,GCAGTCCC,-0.0723 ± 0.00049
15,GGGGTGAA,0.0585 ± 0.016
16,ATTGGTGG,0.114 ± 0.0032
17,ACGTACAT,0.0867 ± 0.029
18,GTCATAGA,-0.157 ± 0.041
19,CCGTGAAG,0.242 ± 0.0076
20,AATGATCA,-0.151 ± 0.034
21,GCATTCGC,0.162 ± 0.056
22,CTACTTTA,0.0515 ± 0.034
23,CTCGTGTC,0.128 ± 0.0062
24,TGAGTCAA,-0.0868 ± 0.06
25,AGCCAGCA,-0.0748 ± 0.027

row,Sequence,PBM E-score of 8-mer
1,AACGGTAC,-0.122 ± 0.029
2,GCCTCAGC,-0.0272 ± 0.034
3,AATTATGC,-0.125 ± 0.071
4,CATCTATA,-0.059 ± 0.018
5,CCGCCCGG,-0.165 ± 0.034
6,GAGCAGTA,-0.00784 ± 0.039
7,AGCGACCA,-0.0754 ± 0.037
8,CTCTGAAA,-0.2424 ± 0.0021
9,ATTAAGCC,-0.241 ± 0.051
10,CGTTAGTC,-0.0488 ± 0.022
11,ATCTCCCG,-0.13 ± 0.049
12,ACTAGGAA,-0.203 ± 0.031
13,CCGCCGAC,0.0818 ± 0.087
14,GCAAATGC,-0.0842 ± 0.024
15,ATCGAATC,-0.213 ± 0.026
16,AATTAGGT,0.0528 ± 0.042
17,CGGACGTA,-0.258 ± 0.0079
18,ATGGCTAA,-0.061 ± 0.0095
19,ATAGCTAA,-0.28 ± 0.0086
20,AAACGCGG,-0.179 ± 0.033
21,AAGATTCT,-0.276 ± 0.003
22,GGATGTAC,-0.201 ± 0.011
23,GTTCACGA,0.275 ± 0.0011
24,CTCTACAG,-0.119 ± 0.087
25,CAGTTCTA,-0.0902 ± 0.016

row,Sequence,PBM E-score of 8-mer
1,AATTTAAG,-0.161 ± 0.043
2,AATTCCAG,-0.131 ± 0.041
3,CATCCTCA,0.00357 ± 0.061
4,CAGTGATA,0.0669 ± 0.091
5,ACATGTCC,-0.159 ± 0.09
6,AAAAGCTT,-0.0879 ± 0.17
7,CAGTACAA,-0.122 ± 0.075
8,GTACGGGA,-0.0385 ± 0.087
9,AATCTCAC,0.366 ± 0.016
10,CCATTGGG,-0.0394 ± 0.042
11,GGCAGTAC,-0.131 ± 0.07
12,ATTTCAAG,-0.254 ± 0.018
13,AAGAGAGA,-0.141 ± 0.03
14,GCCGGTAC,-0.178 ± 0.042
15,GTATACAA,-0.141 ± 0.037
16,GCGCATCC,-0.135 ± 0.076
17,ATACTTGG,-0.22 ± 0.046
18,GGGGAGTA,-0.283 ± 0.017
19,AATGGGTG,0.144 ± 0.011
20,ATCTATGG,-0.1227 ± 0.001
21,GTGTCAAA,0.444 ± 0.0081
22,AAAGGCCG,-0.153 ± 0.022
23,ACGAGACA,-0.13 ± 0.015
24,ACTGTTCT,0.0285 ± 0.011
25,CATTAACC,-0.281 ± 0.015

row,Sequence,PBM E-score of 8-mer
1,ATCAGTCG,-0.135 ± 0.034
2,CCTACGTC,-0.0325 ± 0.1
3,ATGAATTA,-0.045 ± 0.018
4,AAAACCAA,-0.269 ± 0.13
5,ATTCACTC,0.115 ± 0.056
6,CATTCCCG,-0.0702 ± 0.057
7,GAATACAA,-0.0294 ± 0.012
8,AGCGAAAT,0.0721 ± 0.062
9,GCGAAAGA,0.218 ± 0.064
10,GACAAAAA,0.0756 ± 0.042
11,CGTTGCGC,0.105 ± 0.018
12,ATTGGCTC,-0.156 ± 0.02
13,CGAAGGTC,0.0491 ± 0.018
14,ATCGGGGG,-0.201 ± 0.039
15,ACGCCCTC,0.202 ± 0.011
16,GACGACCA,-0.105 ± 0.061
17,AATCAGCA,0.0165 ± 0.021
18,ACAACATA,0.00404 ± 0.089
19,AATTCGCG,0.279 ± 0.02
20,AGGATAAA,-0.0311 ± 0.036
21,ACCAACGC,0.138 ± 0.011
22,AGGAAACA,-0.119 ± 0.031
23,CTGATGGC,-0.0702 ± 0.006
24,ATTGTTAG,-0.0503 ± 0.055
25,GTATTCTA,-0.185 ± 0.035

row,Sequence,PBM E-score of 8-mer
1,AATTTGTA,-0.0872 ± 0.025
2,TAGCTCGA,0.0764 ± 0.09
3,CCTTCTGC,0.16 ± 0.047
4,ACCTGCGA,0.344 ± 0.025
5,GCCGGTAA,-0.0695 ± 0.052
6,CCGGCCTC,-0.183 ± 0.035
7,CATCTCGA,-0.105 ± 0.026
8,AACTAACT,0.0205 ± 0.047
9,ATAGTTCC,-0.283 ± 0.011
10,GCAGAACC,-0.0562 ± 0.028
11,CAAATTCG,0.00135 ± 0.13
12,TCAAAAGA,-0.189 ± 0.02
13,CCATCACG,0.0562 ± 0.03
14,ACACGACC,0.138 ± 0.063
15,GTAGTGCA,-0.14 ± 0.038
16,AGACTTGG,-0.199 ± 0.003
17,CTGCTCAC,0.0993 ± 0.014
18,GAACTGTA,-0.0413 ± 0.033
19,CTGTCAAC,0.35 ± 0.023
20,GGCATCAA,-0.0899 ± 0.025
21,CAAATAGG,-0.0413 ± 0.064
22,CGGGATGA,-0.191 ± 0.02
